Source: the supplement of paper PMC3334620
The full ranking holds about 33,000 sequences; the median of “E-score (-0.5 to 0.5)” is about -0.021, and the highest 2% start at about 0.32. The list shows a part of the results.

Each sequence was assayed against T1, Zap1 (UniProt P47043) (assay: PBM E-score (8-mer binding enrichment) (E-score (-0.5 to 0.5)); higher = stronger / more preferred TF binding; most listed sequences are background and not binding sites). Conditions: protein concentration: 200 nM; construct: GST-full length.
T1 sequence: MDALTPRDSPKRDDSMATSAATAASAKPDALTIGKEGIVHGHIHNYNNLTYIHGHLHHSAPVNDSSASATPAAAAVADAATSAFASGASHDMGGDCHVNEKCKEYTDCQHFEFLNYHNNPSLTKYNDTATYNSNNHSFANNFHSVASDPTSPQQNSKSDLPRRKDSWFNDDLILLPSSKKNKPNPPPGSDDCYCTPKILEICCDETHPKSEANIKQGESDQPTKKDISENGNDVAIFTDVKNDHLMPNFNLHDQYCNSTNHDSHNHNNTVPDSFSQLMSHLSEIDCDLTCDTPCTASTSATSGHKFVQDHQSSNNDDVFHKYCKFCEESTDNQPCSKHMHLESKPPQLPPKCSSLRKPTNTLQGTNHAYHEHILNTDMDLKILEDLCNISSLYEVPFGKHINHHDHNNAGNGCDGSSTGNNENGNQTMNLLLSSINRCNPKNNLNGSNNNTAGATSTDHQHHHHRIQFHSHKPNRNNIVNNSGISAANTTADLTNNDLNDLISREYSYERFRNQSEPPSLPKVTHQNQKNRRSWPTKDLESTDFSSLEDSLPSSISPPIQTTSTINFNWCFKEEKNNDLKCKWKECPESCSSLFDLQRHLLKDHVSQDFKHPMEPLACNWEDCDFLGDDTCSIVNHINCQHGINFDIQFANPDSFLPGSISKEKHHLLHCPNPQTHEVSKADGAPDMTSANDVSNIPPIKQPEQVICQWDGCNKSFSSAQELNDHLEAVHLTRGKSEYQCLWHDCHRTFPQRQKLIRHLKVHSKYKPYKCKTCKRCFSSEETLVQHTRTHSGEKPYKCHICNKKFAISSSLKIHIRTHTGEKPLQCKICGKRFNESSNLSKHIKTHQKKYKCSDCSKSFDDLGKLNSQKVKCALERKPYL
Outline: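 PURExpress in vitro transcription/translation supplied GST-tagged yeast transcription factors, either full-length or DNA-binding domain. Applied at about 100-200 nM to universal all-10-mer Agilent arrays double-stranded by primer extension, the bound protein was detected with fluorescent anti-GST. E-scores, modified Wilcoxon-Mann-Whitney statistics, were given by the Universal PBM Analysis Suite to ungapped eight-base words pooled with their reverse complements after masliner normalisation.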

Sequence	PBM E-score
GTGTGTGA	0.0986
AAATCGTA	-0.0156
GTTCTTCA	-0.0277
CACTGCAC	-0.0532
AGTTCTTG	0.151
CTTTTTAC	0.171
CGGAATAA	0.0667
ATGGTAAA	0.0888
AAGATCGT	-0.0719
CAGGGTCG	0.275
CTCTTTTA	-0.0724
AGGTTCCG	0.2
AAAGATCC	-0.143
AGCCATAC	-0.0612
TGCACAAA	0.0826
CCCGGATC	-0.0795
GCATCACC	0.0458
TTCCTAAA	-0.0427
GGTGACAA	0.242
AGAAGTCC	-0.136
CAATACGC	-0.213
CTGAACGC	-0.216
CCGGCCGG	0.138
AGGTGAGG	0.118
CCCGGCAA	-0.137

Sequence	PBM E-score
GCCCTGCC	-0.0234
AGCGCGCT	-0.256
GCTTGCCA	-0.258
TCGGCGAA	-0.167
AGGTATTA	0.264
ACTACTAG	0.0529
CATAATCG	0.111
ATTAAGTC	-0.0888
AAGAGGTG	0.0323
CTACCGCA	0.00616
ACTCTAAA	0.203
CTGAAGTC	-0.0636
AACGGGAA	-0.195
GCATACAA	0.0405
GCATCCCC	-0.0489
ACCACGTG	0.154
ACGTGTAG	-0.272
GGACTCTA	-0.145
ACGGCGAG	-0.122
ATATCGGG	-0.0718
TCAAATGA	-0.0747
AATGAAGT	0.0905
GAATAAAA	0.23
CGTCGGTA	-0.096
AGTCACCC	0.124

Sequence	PBM E-score
TCCTAAGA	-0.17
GTTGTAAA	0.0295
ATATGATG	-0.0868
AGGGCAGC	-0.251
ATGCACAA	-0.00645
AAACATGG	0.0476
ACCAGCGC	-0.0562
GCTTGATA	0.133
AAGTGCAA	-0.0104
TGTGATAA	0.179
TGATTCAA	0.00028
CACATGGA	-0.0952
TCGCCCAA	-0.149
ATGAATAC	0.0293
CAACCGGG	0.0223
ACAATCGA	0.00326
ACGCGCGG	-0.0976
CTCATAGA	-0.15
ACAAAGTG	0.0999
TATACTGA	0.21
GCCATCGC	-0.213
ATGAGGAC	-0.0846
AGATAATG	0.0746
CGTTTGCC	-0.142
TGAAAAAA	0.245

Sequence	PBM E-score
CACGCCGG	0.151
ATTATTAA	0.194
ATTCATCC	-0.0266
AAAAGGTT	0.444
AGATAGTC	-0.145
CCCTGAGG	0.247
CCATAATA	0.176
CAGTGATC	-0.114
TCTAGAGA	-0.21
CGTATTAG	0.221
ATGTCGGA	-0.0249
GCGGGAAA	0.00815
GAATTACA	0.0427
CTCTCGCC	-0.227
GGCTGAAA	0.0624
AGATCGAA	0.0903
CGTGACCC	0.418
AGTGGCCG	-0.0344
CCCATCGC	-0.275
GTTTCTTA	0.0562
ACGGTTAT	0.414
CAATGAGA	0.0824
ACCGTCCT	-0.0433
AGGTAGTG	0.268
ACCAGGTA	0.0466

Sequence	PBM E-score
AAATTGGA	0.0329
AACGATTG	-0.0887
CCTTGGAG	0.14
CGGAGGGA	-0.214
GAGAAACA	-0.0105
GAGTGTGA	-0.0297
AAAGCCGC	-0.0967
GCAGCGGC	-0.12
CGGCCAAC	-0.0563
ATCCCTAA	0.006
CACACGTA	-0.16
CCGTTGCG	0.105
CAAGAACA	0.0455
GGTATGTA	0.137
ATCTCCGC	-0.181
CCACTTGC	-0.1
ACCCATCT	0.178
CTCCGAAA	0.0202
ACGAGGGA	-0.104
CGCAAAGC	-0.198
GAGATGGA	-0.149
CGTCGGAA	-0.157
AAATGAAA	0.23
AGGCTTAA	-0.0964
CGACTCGA	-0.151

Sequence	PBM E-score
GACTGTGA	-0.0753
AGCCCATA	0.0307
CCATCTCC	-0.0661
GGCCGCCA	-0.128
AGCTCTTA	-0.0175
AGGATTCC	-0.157
CTAGATGC	-0.0848
AGGAACCT	0.293
ATGTTATA	-0.0204
ATAGGCAA	-0.265
ACTCGCTC	-0.246
GATTAGGA	-0.0516
CTCAGGAA	-0.144
AGTTTAAG	0.0747
TTAAGCAA	0.0198
CTGAGACA	-0.239
CCGCGTTA	0.173
ATCCAGTG	0.0495
CTCCTGGA	-0.158
TAATTCTA	0.0993
GCGCTCGA	-0.253
ACGTCGGG	-0.319
GCCGGACA	-0.0773
AAAATCGT	-0.0678
CAGAGCGC	-0.29

Sequence	PBM E-score
AGATCCAT	-0.258
GTGCCAAC	-0.116
ATGGGAGA	-0.298
CTGTTTCA	-0.0207
TAAACTTA	0.0734
AGGCGCGG	-0.13
GGAGAACC	0.101
ATCCCTGA	-0.173
AGGGTCCC	0.32
CCGAAAAG	0.155
GCGAAGCC	-0.188
CTGTCTCA	-0.134
CCGGCTCC	-0.104
AGTGCGGA	-0.0454
AGGGCCAC	0.0845
CAATATCC	0.0427
GTTCGACA	0.0917
AAACAGAT	0.142
AGCTTTGG	-0.00406
ACGTAATG	-0.0815
AATTAAAT	0.0722
CCATTTCC	0.0771
CAGCCGAG	0.0143
GCGTTTTA	-0.0504
CACGATAC	-0.0853

Sequence	PBM E-score
GTCCAAGA	-0.0994
TCACGCCA	-0.0187
AATAATAA	0.242
AGACTCCA	-0.3
AAGTACCA	0.211
TATAGGCA	-0.0951
TAGTTGAA	0.186
CTCTCAAA	0.0974
ATAACAGC	-0.0193
CCACGTTC	-0.258
AAGCTGGT	0.091
TGAAGCCA	-0.0449
ATTGCTTG	-0.0496
GGTAAGGA	-0.00782
CGTCCACC	-0.301
AAAACAAT	0.00317
CATTGGGC	-0.0785
ATCCTTCA	-0.0682
GACTTCAC	-0.198
GCACTCAC	-0.09
GCGAGCGC	-0.0722
GGCTTAAA	0.159
TGAGCGCA	-0.131
CGCCCAGA	-0.149
AGGGCCCC	-0.0584

Sequence	PBM E-score
AGGGGTCC	0.0654
ACCGTTTG	0.223
CCTGGCGA	-0.155
AAAGTTGC	-0.156
TACCGTCA	0.201
TAGCTCAA	0.0268
AGGTCTTG	0.0687
AAGGGGGA	-0.245
ATTGTATA	0.153
TGGCAACA	-0.0616
CGGAGGAA	-0.349
AATCCAGT	-0.0583
CAACAGGC	-0.233
CCTTAGGA	0.179
TATTTCAA	0.264
AGGCTAGG	-0.205
AAGGCGGT	0.126
CGATCATC	-0.045
TTGCACAA	0.0882
AGCATGTG	-0.0756
CATGATGA	0.0134
TACGCGAA	0.154
CCGCTAAA	0.0911
CCCAGCCC	-0.174
AAGTATCG	0.0197

Sequence	PBM E-score
GGATCCAA	-0.0158
GGAACGTA	-0.253
GCATTGCC	-0.25
CGCGGAAG	-0.00159
ACCGGTGC	-0.0626
AATAGTTC	0.0137
AATAACTC	0.192
GAAACTTC	-0.031
ATCCGTCC	-0.253
CGGGTACC	0.432
ATTTCCAC	-0.00072
AGCTCTTG	-0.246
ATTAAAGG	0.267
ACGGCGGC	-0.295
AGTGCTGA	-0.168
ACGAACCG	-0.0396
CCCTTACC	0.208
AATATTAA	0.102
AGCCTAAT	-0.212
ATATATGA	0.034
CGGTCCAG	-0.148
AACAACGC	0.0483
CTTTCGTA	0.0293
ACGCTAGG	-0.227
GACGTACC	-0.177

Sequence	PBM E-score
GCCAGGCA	-0.223
GTATGATA	0.14
ACGTCAAA	0.00961
CACCCTTA	0.269
AAGCTTGG	-0.126
ACGCCATG	0.038
CGCTGGTA	0.0375
AACCACCT	0.247
AGGAGGAA	-0.008
ACCCAAGT	0.114
AACGATCG	-0.0465
ATACTGGG	-0.113
AACTAGTC	-0.0128
AGCGTGAC	0.132
CTCTTCCC	-0.171
CAGGAACC	-0.0283
CACGTCAA	-0.0909
AGATCTAT	-0.12
AATTGGTC	0.248
ATATCCAT	0.0907
CGCTGCTC	-0.205
CCTTAATC	0.0878
AAATTCGC	0.0398
CTACAATC	0.0261
ATCGCGTG	-0.0287

Sequence	PBM E-score
CAATACAG	0.0862
CCGACAGG	0.024
CGGATATA	0.21
CTTTGGAA	0.0904
CAACGCCC	-0.146
TAAACAAA	0.0724
CGGCTTGA	-0.051
CCTTACCA	-0.00238
CCAGCACC	-0.0265
ACTTAAAG	-0.104
ACCACCCC	-0.00264
AATGTTAT	0.0898
CACCTCTA	0.22
CTGTTAAC	0.257
AAGGTTAG	0.35
CGATCAGC	-0.0615
GGCCAGTA	0.177
AGATCCCG	-0.00475
CAGGGCCC	-0.149
CGTATTTA	0.107
AGGCTACA	0.0325
ACTCTCAA	-0.204
AGAACATC	-0.159
AATGTGCG	0.0232
ACAAAGGC	0.0392

Sequence	PBM E-score
AACGTGCC	-0.265
GGCACTGA	-0.0918
AGCTTCTG	-0.0534
CTAACTTC	-0.017
GGACCTCA	0.0651
GCTTCAAA	0.115
ATGAGGGC	-0.149
AACCTATG	0.258
CGGTAAGC	-0.0785
AGCTTAAA	0.0882
CCGCAAGC	-0.141
GTCGCGAC	0.357
CTTAGCAA	0.00485
CACGTGCA	-0.106
GAAATTCA	0.145
ACTGATTC	-0.0498
AGATTTTG	0.162
CACAGAGC	-0.133
GACATAAC	0.221
AGTGTAGG	0.101
GGGCTACA	-0.102
TGCGGACA	0.0215
ACTCAAGT	-0.122
AACAACAT	-0.00187
GCGCTTAC	-0.256

Sequence	PBM E-score
CACCCGCA	-0.0495
CTCCGTGC	-0.319
ACAGGGAC	-0.0892
ATCAACAG	-0.0089
AGATAGAA	-0.183
CTTATCGA	0.0845
TAAACCCA	0.304
ACACTATA	0.129
GTCTATAA	0.163
CATGAGGC	-0.147
GGTATATA	0.315
AGCTCCAT	-0.233
AAGATAGG	-0.118
AGCATATG	-0.0974
ATTGGGGC	-0.0366
AAGGCCCG	-0.247
ACAAATCG	0.075
GCGATGCC	-0.115
GTGAGCAA	-0.0348
